Experimental findings from the supplement of paper PMC11417369 are described below.

This is one part of the list.

The assay has as its system PfHDP1 homeodomain (GST-tagged). The assay is described as follows: gcPBM binding intensity (ln(normalized median fluorescence intensity)); higher = stronger DNA binding. In outline:
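Each value is the highest Masliner-normalised natural-log median intensity across replicate spots of either orientation of a probe. The probes were primer-extended double-stranded 36-bp intergenic genomic sequences on an Agilent 4 × 180k array, alongside negative controls, exposed for 1 h to GST-tagged P. falciparum DNA-binding domains expressed in E. coli. Bound protein was picked up with Alexa488 anti-GST antibody and scanned at 488 nm.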
On to “TTGCAGTATTTCGGAACACACAAACATAAATATGTA [CACACA_site5307]”, for which the “gcPBM binding intensity (ln)” value worked out at 6.26. With “GTTTATTAGGAATTATGTACACAGTTTTATAAAGAA [XGTACX_site2994]”, the “gcPBM binding intensity (ln)” value is 6.79. Then “AATATAATATATTGCACACAAAAAGTGAATTATTCT [CACACA_site1684]”, with 10.7; and “AAATAGTTGTTATGGGTGCAAACCACATATATATAA [GTGCAC_site9428]”, with 8.79.

With “AATATATACATACATACATGCACATATATATATATA [TGCATGCA_site393]”, the “gcPBM binding intensity (ln)” value came out at 9.61. Then “ATTATTTACCACAACACACAAATATTTACCAATCAT [CACACA_site5472]”, with 6.78; and “ATTTGTTTAAGTCACGAACACACATATATCATCAAT [CACACA_site985]”, with 6.53; and “AGGCCTTTTAGTATTTCACACACGTAAATGTGTATA [CACACA_site8284]”, with 6.43. Next, “CTTTGTGGTATAGATACACACTATATTAATATGAAC [CACACA_site7081]”: 6.79. Regarding “AAATAAAAAGGGTGCACACAAAAATATATATATATA [CACACA_site1728]”, the “gcPBM binding intensity (ln)” value amounted to 10.4. With “TAAAAAAGAACAGAAACACACAAATAAAATAAAATT [CACACA_site1758]”, the “gcPBM binding intensity (ln)” value turned out to be 6.67. Next, “CAAAATTGAAGGAACACACATACATATATATATATG [CACACA_site179]”: 6.74; “ATTTTAAATATTTGTGGTACCCCTTTTTTGTAACAA [XGTACX_site5590]”: 6.71. Regarding “CACATTATGTATCATACACACAAATAAATATAGAAT [CACACA_site609]”, the “gcPBM binding intensity (ln)” value is 6.96.

For the sequence “TATTCTAATATATGCATACACACAAATGTGAATATA [CACACA_site2143]”, the “gcPBM binding intensity (ln)” value was 6.76. Then “TTTATATGTATTAAGTGTACACATATAATGTGTTTT [XGTACX_site4890]”, with 6.52.

“AAAACTATAATAAAAGGTACACATTTATTTTTTTCT [XGTACX_site730]”: the “gcPBM binding intensity (ln)” value was determined as 6.09.

In the case of “TATTATTTACCTTGCTAGTTCGTTCCAAATTTTATG [XGTACX_negctrl_site197]”, the “gcPBM binding intensity (ln)” value stood at 7.19. In the case of “TTTTTTTTTTTTTTTACACACACAAAATATTATATG [CACACA_site2471]”, the “gcPBM binding intensity (ln)” value turned out to be 6.57. Next, “ATGTTTGATGCTACACGTACACACCTTGCAAATATT [XGTACX_site1644]”: 7.72; “TATATTATTCATTAAGCACACATTATTTTTATAATA [CACACA_site6056]”: 6.36. Then “AAAACAAATTTTAATGAGAATATGAAAAAAAAATAT [XGTACX_negctrl_site268]”, with 6.74; and “TATATATATAAATACACACACACCCTAAAAATATAT [CACACA_site4970]”, with 7.35. Regarding “TTAACATCAAAATATGCACACAAACAATTAGCGGTA [CACACA_site8801]”, the “gcPBM binding intensity (ln)” value was 9.76.

On to “ATATTATGTCTACATAAACACACATATATATAAAAA [CACACA_site7976]”, for which the “gcPBM binding intensity (ln)” value is 6.71. Turning to “AATAGTTATAAATATAAATATATATATATATATATA [CACACA_negctrl_site414]”, the “gcPBM binding intensity (ln)” value was 9.34.

With “TTACCATAAGTATGTGGTACACTTTAAATGAAGATA [XGTACX_site6972]”, the “gcPBM binding intensity (ln)” value was determined as 6.28. Next, “AATAAATATTCATTTTGTACATATTTTTCGTATATG [XGTACX_site6104]”: 6.24; “ATAATATTTTTAAACTGTACTTTTATAAACACTTAT [XGTACX_site2625]”: 6.46; “GTATAACAACTGATAAAAGAAAAAAAATTTATTATT [CACACA_negctrl_site377]”: 6.25. Next, “ATTTATTTATGTATTTGTACGTATATATTTATGCAT [XGTACX_site5218]”: 6.17; “TTTTTTTCGTATATTACACACTATAAATAGAAATTA [CACACA_site6278]”: 6.68; “TCATATTTTACATATGCATGTTAATAATACAAACAT [TGCATGCA_site994]”: 6.27. Then “TTTTTGAATGTTTGCACACAAATCTCATAATTTTAG [CACACA_site357]”, with 10.4. As for “TAGTTACATAAAATATGTACGTATAATTTTTTTATT [XGTACX_site3847]”, the “gcPBM binding intensity (ln)” value turned out to be 6.1. Next, “ATAATTTATATCATTACACACATTTTTTATATTTTT [CACACA_site3450]”: 6.57. For “TATTTCACAAACCTTACATGCGGTTTATTTATATAT [TGCATGCA_site123]”, the “gcPBM binding intensity (ln)” value worked out at 6.59. On to “TTTATTAAATATATATGTACATATCAAAATGTATAA [XGTACX_site3181]”, for which the “gcPBM binding intensity (ln)” value is 6.61. Next, “TTTTTTTTCTATTGAGCACACATATCACGATTAGTA [CACACA_site7992]”: 7.02; “GTTAAACATCTTCTGTGATATGTTAGAATATTATTT [CACACA_negctrl_site687]”: 6.06; “TTAATTTATGTTAATGGTACGTAAATGCATTTATTT [XGTACX_site3002]”: 6.48.

Consider “ATTTAACCAAATAATATATTTAAAAAATAGTCACAT [CACACA_negctrl_site274]”, for which the “gcPBM binding intensity (ln)” value came out at 6.26. Next, “TTTTATAATTTGAGAACATGCAACATAAATATAAAG [TGCATGCA_site965]”: 6.94; “TATAATATATGAAAAAGTACAAATATTTCGATGGTC [XGTACX_site129]”: 6.59; “TGTTCTAATATTTGTTGTACGTTTACGTTTCTCTCT [XGTACX_site18]”: 6.56.

As for “AACATTTTAAAATAATGTACTTGAAAAAAAAACTAC [XGTACX_site8894]”, the “gcPBM binding intensity (ln)” value turned out to be 6.65. Consider “TATTTAAGAGTATGAACACACATCATACCCATATAA [CACACA_site5911]”, for which the “gcPBM binding intensity (ln)” value amounted to 6.27. Then “CATATAAATAAATATACATGCATACATACATATATA [TGCATGCA_site713]”, with 6.4. Then “ATAACATACATAACAACACACAATATTTATAGGTAT [CACACA_site6243]”, with 6.96; and “TATTTTCTCTTAAAAAGTACTCATATATACATTTAT [XGTACX_site7748]”, with 6.38. “TTTAGTTCATACTATGCACACTACGTATATTTTTAA [CACACA_site5484]”: the “gcPBM binding intensity (ln)” value came to 8.95.

Regarding “ATTAATAAGAAGAAAAGTACAAAACAAAAAGATATA [XGTACX_site7473]”, the “gcPBM binding intensity (ln)” value worked out at 7.08. Next, “CGTTATATATTTTATAGTACTTTTTGTAAATTTTTT [XGTACX_site7682]”: 6.47.

Take “TAACCAAAAAAAAATATTTAAAATAAATATATATAT [CACACA_negctrl_site1516]”: the “gcPBM binding intensity (ln)” value amounted to 8.26. Consider “ATGTCAGGGAAAAAAACACACAAGAGTATGATATGT [CACACA_site2180]”, for which the “gcPBM binding intensity (ln)” value turned out to be 6.66.

In the case of “ATTTTTATATTTAATACACACATAAAATCATACCAT [CACACA_site23]”, the “gcPBM binding intensity (ln)” value amounted to 6.95.
